{
  "source": "the RNAGym collection of RNA variant scans (doi:10.7554/elife.90254)",
  "parents": {"B1": {"name": "LINE1-mini (parent)", "chain": "GGCAGAGCUCAACACAGCGUGGCAAAGUGGCUGUGGCUAGACUGCC"}},
  "note": "The source gives no read counts; variants with many changes may rest on few reads.",
  "data": [
    {"variants_of": "B1", "assay": "self-cleavage, relative activity (ratio to wild type); higher = more cleavage; in vitro, sequencing; the parent is a self-cleaving ribozyme", "values": [
      {"variant": "GGCAGAGCUCAACACAGUGUGGCAAAGCGGCCGUGGCUAGACUGCC", "note": "[C18U U28C U32C]", "self-cleavage": 0.53},
      {"variant": "GGCAGAGCUUAACGCAGCCUGGCAAAGUGGCUGUGGCUAGACUGCC", "note": "[C10U A14G G19C]", "self-cleavage": 0.05},
      {"variant": "UUCAUAGCUCAACUCAGCGUGUCAAAGUGGCUGUGGCUAGAAUGCC", "note": "[G1U G2U G5U A14U G22U C42A]", "self-cleavage": 0},
      {"variant": "GGCAGAGCACAUCACAGCGUUGCAAAGUGGCUGAGGCUAGACUGCC", "note": "[U9A A12U G21U U34A]", "self-cleavage": 0.07},
      {"variant": "GGCAGACCUCAACACAGCGUGGCAAACUGGCUGCGGCUAGACUGCC", "note": "[G7C G27C U34C]", "self-cleavage": 0.3},
      {"variant": "GGCAGAGCUCAACACAGCGUGGCAAAGUUGCUGCGGCUAGACAGAC", "note": "[G29U U34C U43A C45A]", "self-cleavage": 0.01},
      {"variant": "GGCAGAGAUCAAGACAGCGUGGCAAAGUGGCUGUGGCUAGACUGCU", "note": "[C8A C13G C46U]", "self-cleavage": 0.67},
      {"variant": "GGCACAGCUCAACACAGCGUGGAAAACUGGCUGUGGCUCGACUGCC", "note": "[G5C C23A G27C A39C]", "self-cleavage": 0.04},
      {"variant": "GGCAGAGCUCACCACAGGGUGGCAGAGUGGCUGUGGCUUGACUGCC", "note": "[A12C C18G A25G A39U]", "self-cleavage": 0.02},
      {"variant": "GGCAGAGCUCAACGCAGCGUGGCAAUGUGGUUGUGGCUAGACUGCC", "note": "[A14G A26U C31U]", "self-cleavage": 0.03},
      {"variant": "GGCAGAGGUCCACACAGCGUGGCAAAGUGGCUGUGGCUAGACGGCC", "note": "[C8G A11C U43G]", "self-cleavage": 0},
      {"variant": "GGCAAUGCACAACAUAGCGUGGCAACGUGGCUGUGGAUAGACUGCC", "note": "[G5A A6U U9A C15U A26C C37A]", "self-cleavage": 0.13},
      {"variant": "GGCAAAGUUCAACACAGCGUGGCGAAGUGGCUGUGGCUAGACUGCC", "note": "[G5A C8U A24G]", "self-cleavage": 0.5},
      {"variant": "GGCAGAGCUAAACACGGCGUGGCAAAGUGGCUAUGGCUCGACUGCC", "note": "[C10A A16G G33A A39C]", "self-cleavage": 0.01},
      {"variant": "GGCAGAGCUCAACACCGACGGGCAAAGUGGCUGUGGCUAGACUGCC", "note": "[A16C C18A G19C U20G]", "self-cleavage": 0},
      {"variant": "GGCAGAGCUCAACACAGCGUGGGAAAGUCUCUGUGGCUAGACUGCC", "note": "[C23G G29C G30U]", "self-cleavage": 0.12},
      {"variant": "GGAAGAGCUCAACACAACGUGGCCAAGUGGCUGUGGCUAGACUGCC", "note": "[C3A G17A A24C]", "self-cleavage": 0.09},
      {"variant": "GGCAAAGCUCAACACAGCGUGGCAAAGUGACUGUGGCUAGACAUCA", "note": "[G5A G30A U43A G44U C46A]", "self-cleavage": 0.02},
      {"variant": "GGCAGAGCUCAACAGAACGUGGUAAAGUGGCUGUCGCUAGACUGCC", "note": "[C15G G17A C23U G35C]", "self-cleavage": 0},
      {"variant": "GGCAGAGCUCAACACAGCGUGUCAAAGUGGCUGUUGGUAGACUGCC", "note": "[G22U G35U C37G]", "self-cleavage": 0.06},
      {"variant": "GGCAGAGCUCACCACAGCGUGGCAAAGUGGCUGUGGCUAUCCUGCC", "note": "[A12C G40U A41C]", "self-cleavage": 0.06},
      {"variant": "GGCAGAGCUCAACACAGCUUGGCAAAGUAACACAGCCUAGACUGCC", "note": "[G19U G29A G30A U32A G33C U34A G36C]", "self-cleavage": 0.04},
      {"variant": "GGCAGAGCUAAAAACAGCGUAGCAAAGUGGCUGUGGCUAGACUGCC", "note": "[C10A C13A G21A]", "self-cleavage": 0},
      {"variant": "GGCAGAGCUCAACACAGCGUGGCAAAUUGGCUUUCGCUAGACUGCC", "note": "[G27U G33U G35C]", "self-cleavage": 0.02},
      {"variant": "GGCAGGGCUCAACACAGAGUGGCAAAGUGGCUGUGGCUUGACUGCC", "note": "[A6G C18A A39U]", "self-cleavage": 0.04},
      {"variant": "GGCAGAGCCCAAAACAGCGUGGCAAAGUGACUGUGGCUAGACUGCC", "note": "[U9C C13A G30A]", "self-cleavage": 0.03},
      {"variant": "GGCAGAGAUCAACACAGCGUGGCAAACUGGCUGUGGCUAGACUGCG", "note": "[C8A G27C C46G]", "self-cleavage": 0.21},
      {"variant": "GGCAGAAGUCAACACAGCUUGGCAACGUUGCUGUGGCUAGACUGCC", "note": "[G7A C8G G19U A26C G29U]", "self-cleavage": 0.03},
      {"variant": "GGCAGAGCUCAACACAUCGUGGCAACGUGGCUGUGGCUAGUCUUGC", "note": "[G17U A26C A41U G44U C45G]", "self-cleavage": 0.01},
      {"variant": "GGCAAAGCUCAACACAGCGAGCCAAAGUGGCUGUGGCUAGACUGCC", "note": "[G5A U20A G22C]", "self-cleavage": 0.04},
      {"variant": "GGCAGAGCUCAACACAGGGUGGGAAAGUGGCCGUGGCUAGACUGCC", "note": "[C18G C23G U32C]", "self-cleavage": 0.01},
      {"variant": "GGCACAGCUAAACACAGCGUGGCAAAGUGGCUCUGGCUAGACUGCC", "note": "[G5C C10A G33C]", "self-cleavage": 0.02},
      {"variant": "GGCAGAGCUGAAUACAGCGAGGAAAAGUGGCUGUGUCUAGACCGCC", "note": "[C10G C13U U20A C23A G36U U43C]", "self-cleavage": 0},
      {"variant": "GGGAGAGCUCAACACAGCGUGGUUAGGUGGCUGUGGAUAGACUGCC", "note": "[C3G C23U A24U A26G C37A]", "self-cleavage": 0.02},
      {"variant": "GGCAGAGCUCAACGCUGCGUGGCAAAGUGGCUGUGGAUAGACUGCC", "note": "[A14G A16U C37A]", "self-cleavage": 0.03},
      {"variant": "GGUAGAGCUCAACACAUCGUGGCAAAGUGACUAUGGCUGGACUGCC", "note": "[C3U G17U G30A G33A A39G]", "self-cleavage": 0.14},
      {"variant": "GGCAGAACUCAACAAAGCGUGGCAAAGUGGCUGUGUCUAGACUGCC", "note": "[G7A C15A G36U]", "self-cleavage": 0.15},
      {"variant": "CGCAGAGCUCAACACAGCGAGGCAAAGUGGCUGUGCCUAGGCUGCC", "note": "[G1C U20A G36C A41G]", "self-cleavage": 0},
      {"variant": "GGCAAAGCUCAACACAGUGUGGCAAAGUGGCUAUGGCUAGACUGCC", "note": "[G5A C18U G33A]", "self-cleavage": 0.04},
      {"variant": "GGCAGAGCUCCACACCGCGUGCCAAAGUGGCUGUGGCUAGACUGCC", "note": "[A11C A16C G22C]", "self-cleavage": 0.01},
      {"variant": "GGCUCUGCUCAGCACAGCGUGGCAAAGUGGCUGUGGCUCGACUGCC", "note": "[A4U G5C A6U A12G A39C]", "self-cleavage": 0.01},
      {"variant": "GGCAGUGCUCAACACAGCGUGGCACAGCGGCUGUGGCUAGACUGCC", "note": "[A6U A25C U28C]", "self-cleavage": 0.15},
      {"variant": "GGCAGAGCUCAACAGAGCGUGGCAAAGUGGCCGUGGCUAGACAGCC", "note": "[C15G U32C U43A]", "self-cleavage": 0},
      {"variant": "GGCCGAGCUCAACACAGCGUGCCAAAGUGGCUGUGGCUAGAAUGCC", "note": "[A4C G22C C42A]", "self-cleavage": 0.1},
      {"variant": "GGCAGGGCUCACCACAGCGUGGCAAAGUGGGUGUGGUUAGACUAGC", "note": "[A6G A12C C31G C37U G44A C45G]", "self-cleavage": 0},
      {"variant": "GGCAGUGCUCAACACAGCGUGGCAAAGUGGCUGGGGCUAGAAUGCC", "note": "[A6U U34G C42A]", "self-cleavage": 0.09},
      {"variant": "GGCAGACCUCAACAAAGCGUGGCAAAGUGGGUGUGGCUAGACUGCC", "note": "[G7C C15A C31G]", "self-cleavage": 0.05},
      {"variant": "GGCAUGGCUCAACACAGCGUGGCAAAGUGGCUGUGGCUAAACUGCC", "note": "[G5U A6G G40A]", "self-cleavage": 0.05},
      {"variant": "GGCAGAGCUCAACACAGCGUGGCAAAGUGGAGGUGGCUAUACUGCC", "note": "[C31A U32G G40U]", "self-cleavage": 0.08},
      {"variant": "GGCAGAGCUCAACACAGUGUAGCAAAGUGGCGGUGUCUAGACUGCC", "note": "[C18U G21A U32G G36U]", "self-cleavage": 0.06},
      {"variant": "GGCAGAGCUCAACACAGCGUGGCAAAUUGGCUGUGGCUAGCCUUCC", "note": "[G27U A41C G44U]", "self-cleavage": 0.16},
      {"variant": "GGCAGAGCGCAACACAGCGUGGCAAAGUGGAUGAGGCUAGACUGCC", "note": "[U9G C31A U34A]", "self-cleavage": 0.02},
      {"variant": "GGCAGAGCUCAAUACAGCGUGGCAAAGUGGAUGCGGCUAGACUGCC", "note": "[C13U C31A U34C]", "self-cleavage": 0.18},
      {"variant": "GGAAGAGCUCAACACAGCGCGGCAACGUGGCUGUGGCUAGACUGCC", "note": "[C3A U20C A26C]", "self-cleavage": 0.13},
      {"variant": "CGCAGAGCUCAACACAGCGUGCCAAAGUGUCUGUGGCUAGACUGGC", "note": "[G1C G22C G30U C45G]", "self-cleavage": 0.01},
      {"variant": "GGCGGAGCUCAACACAGCGUGGCCAAGUGGCUGUGGCUAGACUGCU", "note": "[A4G A24C C46U]", "self-cleavage": 0.08}
    ]}
  ]
}
